{"source": "PubChem BioAssay (NCI)", "note": "Several values for one entry are separate records, joined by “and”; a condition that tells them apart may be missing. Equal values may be shown once.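 Following 48 hours of exposure in 96-well plates, responses at five concentrations were used to interpolate endpoints linearly. GI50 is the concentration that inhibits growth by half. The concentration for full growth arrest is given as TGI.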 Peptide text beside a SMILES is read from it. * marks the point of attachment. Palmitoyl = CCCCCCCCCCCCCCCC(=O)*", "data": [{"system": "NCI-H322M lung", "assay": "NCI anticancer screen, dose series, 48 h", "units": {"TGI": "µM"}, "values": [{"smiles": "CC[C@@H]1NC(C(=O)OC)Cc2c1[nH]c1ccccc21", "note": "(stereo partly specified)", "TGI": "> 100"}, {"smiles": "O=C1C=C(Nc2ccc(Cl)cc2C(=O)c2ccccc2)c2ccccc2C1=O", "TGI": "> 100"}, {"smiles": "O=C(CN1C(=O)CC(c2ccccc2)(c2ccccc2)C1=O)N1CCN(CCO)CC1", "TGI": "> 100"}, {"smiles": "CCOC(=O)/C=C1/C(CCCOCc2ccccc2)C2CCCC23CC2(CCN13)OCCO2", "note": "(stereo unspecified)", "TGI": "> 100"}, {"smiles": "CCOC(=O)c1c(C)c2c(n1Cc1ccccc1)CSCC2=O", "GI50": "36.5 µM", "TGI": "> 100"}, {"smiles": "O=c1cccc(C#CC#C[C@@H]2O[C@H]2CO)o1", "GI50": "1.71 µM", "TGI": 6.74}, {"smiles": "C[C@@H]1CCC2[C@@H](C)[C@@H](O[C@H]3O[C@@H]4O[C@@]5(C)CCC6[C@H](C)CCC([C@H]3C)[C@]64OO5)O[C@@H]3O[C@@]4(C)CCC1[C@@]23OO4", "note": "(stereo partly specified)", "TGI": "> 25"}, {"smiles": "Cc1ccc2c(c1)c1ccc3c(c1n2C)C(=O)C=CC3=O", "TGI": "> 10"}, {"smiles": "COc1cc(Nc2ccc3c(c2)CCC3)nc(OC)n1", "TGI": "> 100"}, {"smiles": "COc1ccc(C(=O)NCCN(C)C)c2nc3ccccc3cc12", "TGI": 9.72}, {"smiles": "CC(C)(C)c1ccc2c(c1)C#Cc1cc3c(cc1OCCCO2)C#Cc1cc(C(C)(C)C)ccc1OCCCO3", "TGI": "> 100"}, {"smiles": "COCOCCC#CCO", "TGI": "> 100"}, {"smiles": "c1ccc(C(C(=Nc2ccc(Cc3ccc(N=C(C(c4ccccc4)c4ccccc4)N4CC4)cc3)cc2)N2CC2)c2ccccc2)cc1", "TGI": 47.5}, {"smiles": "C=C(C)CNCCN", "TGI": "> 100"}, {"smiles": "CC(C)Oc1cccc(N2C(=NCc3c[nH]c4ccccc34)Nc3ccncc3S2(=O)=O)c1", "TGI": "> 100"}, {"smiles": "CC(C)=CCC1=C(O)c2ccccc2C(=O)C1=O", "GI50": "> 100 µM and 30.4 µM and 20.1 µM", "TGI": "> 100"}, {"smiles": "COc1cccc2c1OC(c1cccc3ccccc13)C([N+](=O)[O-])=C2", "note": "(stereo unspecified)", "TGI": 4.3}, {"smiles": "CCCN(CCC)c1c([N+](=O)[O-])cc(C(=O)N(CC)CC)cc1[N+](=O)[O-]", "TGI": "> 100"}, {"smiles": "O=c1[nH]c(-c2cccc(F)c2)cc2cc(F)ccc12", "GI50": "4.35 µM", "TGI": "> 100"}, {"smiles": "C[N+](C)(C)CC(=O)N/N=C(/Cc1cc(=O)oc2cc(O)ccc12)C(=O)Nc1ccc(Cl)cc1", "TGI": "> 100"}, {"smiles": "O=c1onc2n1-c1cc(Cl)ccc1C(=S)N1CSCC21", "note": "(stereo unspecified)", "TGI": "> 100"}, {"smiles": "CSc1nc2c(c(N(C)C)n1)C(O)n1c(nc3ccccc31)S2", "note": "(stereo unspecified)", "TGI": "> 100"}, {"smiles": "C=CCn1c(=O)ccn(/C(=C/C(=O)OCC)C(=O)OCC)c1=O", "TGI": 99.7}, {"smiles": "CC1OC(O[C@H]2C3C=CO[C@@H](OC4OC(CO)C(O)C(O)C4O)C3[C@@]3(COC(=O)/C=C/c4ccccc4)O[C@@H]23)C(O)C(O)C1O", "note": "(stereo partly specified)", "TGI": "> 100"}, {"smiles": "CCN(CC)c1ccc(/C=C/c2ccnc3ccccc23)cc1", "TGI": "> 100"}, {"smiles": "CCOC(=O)CNC(=O)NC12CC3CC(CC(C3)C1)C2", "TGI": "> 550"}, {"smiles": "CCN(Cc1c(F)cccc1OC)c1ccc(CO)c(Cl)c1", "GI50": "3.81 µM", "TGI": 22.1}, {"smiles": "Cc1cc(C(=O)CSC(=S)SC(C)(C)C)ccc1Cl", "TGI": 43}, {"smiles": "O=C(c1ccccc1)c1ccc2c(c1)NC(=O)c1ccccc1SSc1ccccc1C(=O)N2", "TGI": "> 100"}, {"smiles": "C/C(=N\\NC(N)=O)c1sc(-c2nc(C)c(/C(C)=N/NC(N)=O)s2)nc1C", "TGI": "> 100"}, {"smiles": "CCCCCCn1c(-c2ccc(C(=O)O/N=C(\\N)c3ccc4c(c3)OCO4)cc2)nc(-c2ccccc2)c1-c1ccccc1", "GI50": "5.82 µM", "TGI": "> 100"}, {"smiles": "COc1ccc(Cl)cc1NC(=O)c1ccc(NC2=C(Cl)C(=O)N(Cc3ccccc3)C2=O)cc1", "GI50": "> 100 µM", "TGI": "> 100"}, {"smiles": "FC(F)(F)c1ccc2nc(NCc3ccccc3)c(-c3ccccc3)nc2c1", "TGI": "> 100"}, {"smiles": "COc1nc(=O)n(C2C=CC(=O)O2)cc1F", "note": "(stereo unspecified)", "GI50": "16.7 µM", "TGI": 60}, {"smiles": "O=C1/C(=C/c2ccc(Cl)cc2)CCCc2ccccc21", "TGI": 48}, {"smiles": "CCN(C(=O)N[C@@H](C)C(=O)N[C@@H](Cc1ccccc1)C(=O)OC)c1ccccc1", "TGI": "> 100"}, {"smiles": "COc1cc2c3c(n(C)c(=O)c2cc1OC)-c1cc2c(cc1C3=O)OCO2", "TGI": "> 100"}, {"smiles": "COc1ccc(-c2cc(=O)oc3c4c(ccc23)OCN(Cc2ccc(F)cc2)C4)cc1", "GI50": "20.5 µM", "TGI": 57}, {"smiles": "CSc1csc(-c2ccc(-c3ccc(-c4cc(SC)cs4)s3)s2)c1", "TGI": "> 100"}, {"smiles": "Cc1ccc(/C=C2/N=C(N/N=C\\C(O)C(O)C(O)C(O)CO)NC2=O)cc1", "note": "(stereo unspecified)", "TGI": "> 100"}, {"smiles": "O=C(O)c1cccc(S(=O)(=O)NN2C(=O)CSC2c2ccc(Cl)cc2Cl)c1", "note": "(stereo unspecified)", "TGI": "> 100"}, {"smiles": "CC(C)(CO)CNc1nc(N)nc(Cl)c1/C=N/O", "TGI": "> 100"}, {"smiles": "CCOc1ccc(NC(=O)CC2SC(=Nc3ccc(C)cc3C)NC2=O)cc1", "note": "(stereo unspecified)", "TGI": "> 100"}, {"smiles": "Cc1nc2sccn2c1-c1nc2sccn2c1/C=C1/C(=O)Nc2ccccc21", "GI50": "19 µM", "TGI": "> 100"}, {"smiles": "O=C1N(Cc2ccccc2)C2CSCC2N1Cc1ccccc1", "note": "(stereo unspecified)", "TGI": "> 100"}, {"smiles": "COc1ccc(-c2c(C#N)c(N3CCOCC3)nc3[nH]c(=S)[nH]c(=S)c23)cc1OC", "GI50": "> 100 µM", "TGI": "> 100"}, {"smiles": "CC12c3ccccc3C(OC=O)(c3ccccc31)C1(C)c3ccccc3C2(OC=O)c2ccccc21", "TGI": "> 100"}, {"smiles": "CCCCCCCCCCCCCCCC(=O)N1CCCC1C(=O)NCC(=O)NC(Cc1ccccc1)C(=O)N1CCCC1C(=O)NC(CO)C(=O)NC(Cc1ccc(O)cc1)C(=O)NC(CCCCN)C(=O)NC(CC(C)C)C(=O)NC(CCCN=C(N)N)C(=O)N1CCCC1C(=O)NCC(N)=O", "note": "(stereo unspecified) (Palmitoyl-PGFPSYKLRPG-NH2; configuration not given here)", "GI50": "2.27 µM", "TGI": 20.4}, {"smiles": "Oc1oc(C(=C2N=c3ccccc3=N2)c2ccc(Cl)cc2)c(O)c1-c1ccc(Cl)cc1", "TGI": "> 100"}]}]}
